# Laboratory results published in the supplement of paper PMC8728848.
# Some of the results follow.
# B1: rAAL-H59Q (Agrocybe aegerita), Q6WY08 (protein)
# chain: MQGVNIYNISAGTSVDLAAPVTTGDIVTFFSSALNLNAGAGNPNNTTLNLFAENGAYLLQIAFRLQENVIIFNSRQPDGPWLVEQRVSDVANQFAGIDGKAMVTVFDHGDKYQVVINEKTVIQYTKQISGLTLSLSYNATEETSIFSTVVEAVTYTGLALEHHHHHH
# What was measured:
# Assay in all cases: glycan array binding signal (z-score within array); higher = stronger binding
# Details in all cases: glycan notation: IUPAC condensed, linker removed; mutation: H59Q
# [1] = molecular target: Neu5Ac(a2-6)GlcNAc(b1-4)GlcNAc(b1-4)GlcNAc
# Procedure, shortened: (§1)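 Glycan array data came from 3228 arrays in the Consortium for Functional Glycomics database, and only arrays with an available protein sequence were kept. Glycan names were put into IUPAC-condensed notation, and columns mapping to the same glycan were averaged. The binding signal is a within-array Z-score, averaged across arrays of one protein sequence run at different concentrations or buffers and across linkers. A negative Z-score can be read as non-binding.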
# Neu5Ac(a2-8)Neu5Ac = molecular target: Neu5Ac(a2-8)Neu5Ac
# Procedure, shortened: as §1
# [2] = molecular target: Neu5Ac(a2-8)Neu5Ac(a2-3)Gal(b1-3)GalNAc(b1-4)[Neu5Ac(a2-3)]Gal(b1-4)Glc
# Procedure, shortened: as §1
# [3] = molecular target: Neu5Ac(a2-8)Neu5Ac(a2-3)Gal(b1-3)GalNAc(b1-4)[Neu5Ac(a2-8)Neu5Ac(a2-3)]Gal(b1-4)Glc
# Procedure, shortened: as §1
# [4] = molecular target: Neu5Ac(a2-8)Neu5Ac(a2-3)Gal(b1-4)Glc
# Procedure, shortened: as §1
# [5] = molecular target: Neu5Ac(a2-8)Neu5Ac(a2-3)Gal(b1-4)GlcNAc
# Procedure, shortened: as §1
# [6] = molecular target: Neu5Ac(a2-8)Neu5Ac(a2-3)[Gal(b1-3)GalNAc(b1-4)]Gal(b1-4)Glc
# Procedure, shortened: as §1
# [7] = molecular target: Neu5Ac(a2-8)Neu5Ac(a2-3)[GalNAc(b1-4)]Gal(b1-4)Glc
# Procedure, shortened: as §1
# [8] = molecular target: Neu5Ac(a2-8)Neu5Ac(a2-8)Neu5Ac
# Procedure, shortened: as §1
# [9] = molecular target: Neu5Ac(a2-8)Neu5Ac(a2-8)Neu5Ac(a2-3)Gal(b1-4)Glc
# Procedure, shortened: as §1
# [10] = molecular target: Neu5Ac(a2-8)Neu5Ac(a2-8)Neu5Ac(a2-3)[Gal(b1-3)GalNAc(b1-4)]Gal(b1-4)Glc
# Procedure, shortened: as §1
# [11] = molecular target: Neu5Ac(a2-8)Neu5Ac(a2-8)Neu5Ac(a2-3)[GalNAc(b1-4)]Gal(b1-4)Glc
# Procedure, shortened: as §1
# [12] = molecular target: Neu5Ac(a2-8)Neu5Ac(a2-8)Neu5Ac(a2-8)Neu5Ac(a2-3)[GalNAc(b1-4)]Gal(b1-4)Glc
# Procedure, shortened: as §1
# [13] = molecular target: Neu5Ac(a2-8)Neu5Gc(a2-3)Gal(b1-4)GlcNAc
# Procedure, shortened: as §1
# [14] = molecular target: Neu5Ac(b2-6)Gal(b1-4)GlcNAc
# Procedure, shortened: as §1
# Neu5Ac(b2-6)GalNAc = molecular target: Neu5Ac(b2-6)GalNAc
# Procedure, shortened: as §1
# [15] = molecular target: Neu5Ac9Ac(a2-3)Gal(b1-3)GlcNAc
# Procedure, shortened: as §1
# [16] = molecular target: Neu5Ac9Ac(a2-3)Gal(b1-4)GlcNAc
# Procedure, shortened: as §1
# [17] = molecular target: Neu5Ac9Ac(a2-6)Gal(b1-4)GlcNAc
# Procedure, shortened: as §1
# [18] = molecular target: Neu5Gc(a2-3)Gal(b1-3)GlcNAc
# Procedure, shortened: as §1
# [19] = molecular target: Neu5Gc(a2-3)Gal(b1-3)[Fuc(a1-4)]GlcNAc
# Procedure, shortened: as §1
# Neu5Gc(a2-3)Gal(b1-4)Glc = molecular target: Neu5Gc(a2-3)Gal(b1-4)Glc
# Procedure, shortened: as §1
# [20] = molecular target: Neu5Gc(a2-3)Gal(b1-4)GlcNAc
# Procedure, shortened: as §1
# [21] = molecular target: Neu5Gc(a2-3)Gal(b1-4)GlcNAc(b1-3)Gal(b1-4)GlcNAc(b1-2)Man(a1-3)[Neu5Gc(a2-3)Gal(b1-4)GlcNAc(b1-3)Gal(b1-4)GlcNAc(b1-2)Man(a1-6)]Man(b1-4)GlcNAc(b1-4)GlcNAc
# Procedure, shortened: as §1
# [22] = molecular target: Neu5Gc(a2-3)Gal(b1-4)[Fuc(a1-3)]GlcNAc
# Procedure, shortened: as §1
# [23] = molecular target: Neu5Gc(a2-6)Gal(b1-4)GlcNAc
# Procedure, shortened: as §1
# Neu5Gc(a2-6)GalNAc = molecular target: Neu5Gc(a2-6)GalNAc
# Procedure, shortened: as §1
# [24] = molecular target: Neu5Gc(a2-8)Neu5Ac(a2-3)Gal(b1-4)GlcNAc
# Procedure, shortened: as §1
# [25] = molecular target: Neu5Gc(a2-8)Neu5Gc(a2-3)Gal(b1-4)GlcNAc
# Procedure, shortened: as §1
# [26] = molecular target: Neu5Gc(a2-8)Neu5Gc(a2-3)Gal(b1-4)GlcNAc(b1-3)Gal(b1-4)GlcNAc
# Procedure, shortened: as §1
# [27] = molecular target: Neu5Gc(a2-8)Neu5Gc(a2-6)Gal(b1-4)GlcNAc
# Procedure, shortened: as §1
# [28] = molecular target: Neu5Gc(b2-6)Gal(b1-4)GlcNAc
# Procedure, shortened: as §1
binder,measurement,setting,value
B1,glycan array binding signal (z-score),[1],-0.083
same,glycan array binding signal (z-score),Neu5Ac(a2-8)Neu5Ac,-0.102
same,glycan array binding signal (z-score),[2],-0.109
same,glycan array binding signal (z-score),[3],-0.103
same,glycan array binding signal (z-score),[4],-0.147
same,glycan array binding signal (z-score),[5],-0.136
same,glycan array binding signal (z-score),[6],-0.079
same,glycan array binding signal (z-score),[7],-0.006
same,glycan array binding signal (z-score),[8],-0.081
same,glycan array binding signal (z-score),[9],-0.101
same,glycan array binding signal (z-score),[10],-0.054
same,glycan array binding signal (z-score),[11],-0.025
same,glycan array binding signal (z-score),[12],-0.054
same,glycan array binding signal (z-score),[13],-0.172
same,glycan array binding signal (z-score),[14],-0.083
same,glycan array binding signal (z-score),Neu5Ac(b2-6)GalNAc,-0.125
same,glycan array binding signal (z-score),[15],-0.055
same,glycan array binding signal (z-score),[16],-0.081
same,glycan array binding signal (z-score),[17],-0.114
same,glycan array binding signal (z-score),[18],-0.092
same,glycan array binding signal (z-score),[19],-0.13
same,glycan array binding signal (z-score),Neu5Gc(a2-3)Gal(b1-4)Glc,-0.163
same,glycan array binding signal (z-score),[20],-0.129
same,glycan array binding signal (z-score),[21],0.041
same,glycan array binding signal (z-score),[22],-0.09
same,glycan array binding signal (z-score),[23],-0.138
same,glycan array binding signal (z-score),Neu5Gc(a2-6)GalNAc,-0.145
same,glycan array binding signal (z-score),[24],-0.054
same,glycan array binding signal (z-score),[25],-0.039
same,glycan array binding signal (z-score),[26],-0.122
same,glycan array binding signal (z-score),[27],-0.072
same,glycan array binding signal (z-score),[28],-0.027
